Measurements published in the supplement of paper PMC11417369.
± gives the standard deviation of the averaged measurements. The list shows a part of the results.

These sequences were tested on PfAP2-EXP AP2 domain (GST-tagged) (assay: gcPBM binding intensity (ln(normalized median fluorescence intensity)); higher = stronger DNA binding).
In short: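 Each value is the highest Masliner-normalised natural-log median intensity across replicate spots of either orientation of a probe. The probes were primer-extended double-stranded 36-bp intergenic genomic sequences on an Agilent 4 × 180k array, alongside negative controls, exposed for 1 h to GST-tagged P. falciparum DNA-binding domains expressed in E. coli. Bound protein was picked up with Alexa488 anti-GST antibody and scanned at 488 nm.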

“AATATATTTCGAGATACACACATATATAAAAAAAAA [CACACA_site3398]” and “ATATATCACAATAAAATTTATAGAATTTTAAATAAG [TGCATGCA_negctrl_site437]” are within error of each other in “gcPBM binding intensity (ln)” value: 8.52 ± 0.48 for the first, 8.41 ± 0.16 for the second.

“CAATAAAGAGGGAATTGTACTTTAAATATCCCTCTT [XGTACX_site1991]” and “AAAATAAAATAAAATACACACATACATACATACAAA [CACACA_site5366]” are within error of each other in “gcPBM binding intensity (ln)” value: 8.37 ± 0.38 for the first, 8.72 ± 0.57 for the second.

“TTATATATTTTTACCATACACACATATAATAAATAT [CACACA_site3721]” and “ATCATAAAAGTATACACACATACATACATATGTACA [CACACA_site2641]” are within error of each other in “gcPBM binding intensity (ln)” value: 8.56 ± 0.35 for the first, 8.65 ± 0.38 for the second.

“ATAAAGATTTTCCAAGCATGCCACATAGTGAGATAC [TGCATGCA_site594]” and “TATATATATATTATATGTACATATTCCTATATATAC [XGTACX_site7071]” are within error of each other in “gcPBM binding intensity (ln)” value: 9.14 ± 0.4 for the first, 9.51 ± 0.17 for the second.

“TAAATATATATATATGTACACACTCCAATACATATA [CACACA_site8858]” and “ACTTTATATTTTGAACGTACAAAAAAAAAATTATGT [XGTACX_site5588]” are within error of each other in “gcPBM binding intensity (ln)” value: 8.52 ± 0.36 for the first, 8.61 ± 0.45 for the second.

“AACCATTAATTCTCTACACACTTTTATTTTATTTAG [CACACA_site1769]” and “GCACATATATACATACATACATACATACATATGTAT [TGCATGCA_negctrl_site95]” are within error of each other in “gcPBM binding intensity (ln)” value: 8.72 ± 0.45 for the first, 8.77 ± 0.53 for the second.

“TTGGTTATACAACACATGCACACGTAAATAAATATT [CACACA_site3841]” and “AAGTATGCATTATATACACACATACATTTATATATT [CACACA_site4242]” are within error of each other in “gcPBM binding intensity (ln)” value: 8.96 ± 0.33 for the first, 8.54 ± 0.33 for the second.

“TATATATAAAGAGAAACATGCAAAATGTGAATATTC [TGCATGCA_site377]” and “ATTATGTTAAAAAGGCGTACATGTTATAAGGTCCTA [XGTACX_site344]” are within error of each other in “gcPBM binding intensity (ln)” value: 9.2 ± 0.4 for the first, 8.73 ± 0.41 for the second.

“TCCTTATAAATATATATATAATATATATATATATAT [CACACA_negctrl_site293]” and “TATATATATATTTATACACACATTAGTGTAGACATG [CACACA_site8964]” are within error of each other in “gcPBM binding intensity (ln)” value: 9.54 ± 0.29 for the first, 9.45 ± 0.22 for the second.

“TTGTTCTAATATATTGCACACGTAAAAATATAGGTA [CACACA_site8195]” and “ATATAATATATATGGTGTACATTTTTTAGTGCTATT [XGTACX_site1662]” are within error of each other in “gcPBM binding intensity (ln)” value: 8.8 ± 0.13 for the first, 8.62 ± 0.29 for the second.

“AAAAAGTGACTCCTTACACACTTTACATAATTTAGT [CACACA_site4606]” and “TAAAAGAATAAAAGTAGTACTTTTTTTTATATTAGA [XGTACX_site368]” are within error of each other in “gcPBM binding intensity (ln)” value: 8.44 ± 0.38 for the first, 8.125 ± 0.007 for the second.

“ATATTTTTATATTAGTGTACTTATTATAATGTATAG [XGTACX_site8185]” and “TCTTTTTTTTTTTATTGTACAAGAAAAGGAAAAAAT [XGTACX_site3717]” are within error of each other in “gcPBM binding intensity (ln)” value: 8.45 ± 0.26 for the first, 8.59 ± 0.12 for the second.
